“And” between values parts separate entries of the source, which are not always exact repeats. Identical values can stand only once. Inconclusive results, whose numbers are uncertain, are shown with a selection of clear calls. For some of these results: Where the call is inconclusive, the potency comes from a doubtful curve fit. The source made the active and inactive calls. Unless noted, the call rests on the fitted dose curve; in most records, active means well fitted curve in the direction sought with a large enough effect; inconclusive means small, poorly fitted or top-dose-only effect, or another doubt; inactive means no such curve, though single readings can be large; an effect the other way counts as inactive or inconclusive.
Legend:
[1] = biological target: Aldehyde dehydrogenase, mitochondrial (Homo sapiens) (UniProt P05091); assay: qHTS for Inhibitors of the Aldehyde Dehydrogenase Family (ALDH2) Confirmatory screens (AID 2061303; active means well fitted inhibition curve with a large enough effect; inconclusive means small, poorly fitted or top-dose-only effect; inactive means no such curve, though single readings can be large or run the other way; title and protocol of this record describe different tests; further: nearly all actives have a fitted effect of over 45% in size); conditions: ALDH inhibition qHTS; activity change, negative = inhibition: at 45.4 µM (top of the series)
[2] = qHTS for Inhibitors of the Aldehyde Dehydrogenase Family (ALDH1A2, ALDH1A3, ALDH2, ALDH3A1) (AID 2061307); conditions: ALDH inhibition qHTS; activity change, negative = inhibition: at 50.3 µM (top of the series) unless noted; further: nearly all actives have a fitted effect of over 50% in size; on potency: test system not described further here
[3] = biological target: Aldehyde dehydrogenase, mitochondrial (Homo sapiens) (UniProt P05091); assay: qHTS for Inhibitors of the Aldehyde Dehydrogenase Family (ALDH2) Primary screen (AID 2061308); further: nearly all actives have a fitted effect of over 55% in size
[4] = biological target: Retinaldehyde dehydrogenase 3 (Homo sapiens) (UniProt P47895); assay: qHTS for Inhibitors of the Aldehyde Dehydrogenase Family (ALDH1A3) Confirmatory screens (AID 2061311); conditions: activity change, negative = inhibition: at 46 µM (top of the series); further: nearly all actives have a fitted effect of over 60% in size
[5] = biological target: Retinal dehydrogenase 2 (Homo sapiens) (UniProt O94788); assay: qHTS for Inhibitors of the Aldehyde Dehydrogenase Family (ALDH1A2) Confirmation screens (AID 2061314); conditions: activity, negative = inhibition: at 45.9 µM (top of the series) unless noted; further: nearly all actives have a fitted effect of over 65% in size
[6] = biological target: Retinaldehyde dehydrogenase 3 (Homo sapiens) (UniProt P47895); assay: qHTS for Inhibitors of the Aldehyde Dehydrogenase Family (ALDH1A3) Validation screen (AID 2061312); conditions: ALDH1A3 enzyme inhibition qHTS validation, fluorescence; activity change, negative = inhibition: at 84.7 µM (top of the series); further: nearly all actives have a fitted effect of over 45% in size
[7] = biological target: Retinaldehyde dehydrogenase 3 (Homo sapiens) (UniProt P47895); assay: qHTS for Inhibitors of the Aldehyde Dehydrogenase Family (ALDH1A3) Primary screen (AID 2061315); conditions: ALDH inhibition qHTS; activity change, negative = inhibition: at 56 µM (top of the series) unless noted
[8] = biological target: Aldehyde dehydrogenase 1A1 (Homo sapiens) (UniProt P00352); assay: qHTS for Inhibitors of the Aldehyde Dehydrogenase Family (ALDH1A1) Confirmatory screens (AID 2061316); conditions: activity change, negative = inhibition: at 47.3 µM (top of the series); further: nearly all actives have a fitted effect of over 65% in size
Potency means the concentration at half of the fitted maximal effect; tags describe the fitted curve by direction and shape.

SMILES	Potency [1]	Potency [2]	Potency [3]	Potency [4]	Potency [5]	Potency [6]	Potency [7]	Potency [8]
CC(=O)c1ccc(NC(=O)CSc2ccc3nc(-c4ccccc4)cn3n2)cc1	active: 22.9 µM	active: 0.0576 µM						
COc1ccc(S(=O)(=O)N2CCC3(CC2)CC(CC(=O)N2CCCC2)CCO3)cc1 (stereo not given)	inconclusive: 2.51 µM [inhibitor, full curve, poor fit]							
Fc1cc(Nc2nc(-c3ccncc3)nc3ccccc23)ccc1N1CCCCC1	inactive	inactive						
O=C(OCC#CCSc1nnc(-c2cccc3ccccc23)o1)c1ccco1	active: 6.34 µM	inconclusive: 5.65 µM [inhibitor, full curve]	inconclusive: 39.8 µM [inhibitor, single point]	inconclusive: 10.1 µM [inhibitor, partial curve, poor fit]	inconclusive: 4.49 µM [inhibitor, full curve]			
Cc1ccc(NC(=O)N2CCN(c3nc(N)nc4sc(-c5cccnc5)nc34)CC2)cc1	active: 0.0355 µM	inconclusive: 0.282 µM [inhibitor, full curve, poor fit]	inconclusive: 39.8 µM [inhibitor, partial curve, poor fit]	active: 2.52 µM	active: 14.1 µM	active: 2.82 µM	inconclusive: 2.82 µM [inhibitor, full curve]	active: 28.3 µM
O=C(C1CCCCC1)N(CCN1CCN(c2ccccc2O)CC1)c1ccccn1	inactive	inactive	inconclusive: 31.6 µM [inhibitor, single point]	inconclusive: 12.7 µM [inhibitor, partial curve]	inactive	inconclusive: 7.94 µM [inhibitor, full curve, poor fit]	inconclusive: 8.91 µM [inhibitor, partial curve]	
O=C(OCC#CCSc1nnc(-c2ccco2)o1)c1ccc(F)cc1	active: 15.9 µM	inactive	inconclusive: 28.2 µM [inhibitor, partial curve, poor fit]	inconclusive: 31.8 µM [inhibitor, partial curve, poor fit]	inconclusive: 22.5 µM [inhibitor, partial curve, poor fit]			
O=S1(=O)N=C(Oc2ccc(Br)cc2)c2ccccc21	inconclusive: 22.5 µM [inhibitor, partial curve, poor fit]	inconclusive: 28.3 µM [inhibitor, partial curve]	inconclusive: 31.6 µM [inhibitor, single point]	inconclusive: 11.3 µM [inhibitor, partial curve]	inconclusive: 10.1 µM [inhibitor, partial curve, poor fit]			
Cc1c(C(=O)OCc2ccco2)[nH]c2c1C(=O)CC(c1ccco1)C2 (stereo not given)	inconclusive: 5.65 µM [inhibitor, full curve]	inconclusive: 11.3 µM [inhibitor, partial curve]	inconclusive: 14.1 µM [inhibitor, partial curve]	inconclusive: 11.3 µM [inhibitor, partial curve]				
N#Cc1c(-c2cccc([N+](=O)[O-])c2)no[n+]1[O-]	inconclusive: 17.9 µM [inhibitor, partial curve]	inconclusive: 20.1 µM [inhibitor, partial curve, poor fit]	active: 7.94 µM	inconclusive: 12.7 µM [inhibitor, partial curve]				
O=C1NC(c2cccc([N+](=O)[O-])c2)=CCN1c1ccccc1O	inconclusive: 22.5 µM [inhibitor, partial curve, poor fit]	inconclusive: 22.5 µM [inhibitor, partial curve]	inconclusive: 6.31 µM [inhibitor, single point]	inconclusive: 25.2 µM [inhibitor, partial curve]	inconclusive: 12.7 µM [inhibitor, partial curve, poor fit]	inconclusive: 1.12 µM [inhibitor, full curve]	inconclusive: 7.94 µM [inhibitor, single point]	inactive
N#Cc1ccc(N2CCN(S(=O)(=O)c3ccc4c(c3)CC(=O)N4)CC2)cc1	inconclusive: 15.9 µM [inhibitor, partial curve]	inconclusive: 11.3 µM [inhibitor, partial curve]	inconclusive: 6.31 µM [inhibitor, partial curve, poor fit]	active: 15.8 µM	inconclusive: 25.2 µM [inhibitor, partial curve]			
O=C(O)C1NCc2[nH]cnc2C1c1ccccc1 (stereo not given)	inconclusive: 44.7 µM [inhibitor, partial curve, poor fit]	inconclusive: 0.447 µM [inhibitor, full curve, poor fit]	inconclusive: 11.2 µM [inhibitor, partial curve, poor fit]	inconclusive: 11.3 µM [inhibitor, partial curve]				
N#Cc1ccc(-c2ccc(CNc3ccc(N4CCN5CCCCC5C4)cc3)o2)cc1 (stereo not given)	active: 0.0252 µM	active: 0.449 µM	inconclusive: 0.316 µM [inhibitor, full curve, poor fit]	inconclusive: 31.8 µM [inhibitor, single point]				
CC1=C(C(=O)OC2CCCCC2)C(c2ccc([N+](=O)[O-])cc2)C2=C(CC(C)(C)CC2=O)N1 (stereo not given)	inconclusive: 11.3 µM [inhibitor, partial curve]	inconclusive: 8.96 µM [inhibitor, partial curve]	inconclusive: 17.8 µM [inhibitor, partial curve, poor fit]	active: 2.25 µM	inconclusive: 2.25 µM [inhibitor, full curve, poor fit]	active: 5.62 µM	active: 7.08 µM	
NC(=O)c1cccc(-c2cnc3c(O)ccc(C(=O)O)c3c2)c1	inconclusive: 4 µM [inhibitor, partial curve]	inconclusive: 1.59 µM [inhibitor, partial curve]	inconclusive: 2.51 µM [inhibitor, full curve, poor fit]	active: 11.3 µM	active: 4.49 µM			
Cc1csc2c(N[C@@H](C)CN3CCN(S(=O)(=O)c4ccc(Cl)c(Cl)c4)CC3)ncnc12	active: 12.6 µM	active: 708 nM and active: 224 nM	inconclusive: 35.5 µM [inhibitor, single point]	inconclusive: 17.9 µM [inhibitor, partial curve]	inconclusive: 7.12 µM [inhibitor, partial curve]	inconclusive: 10 µM [inhibitor, full curve, poor fit]		
O=C1c2ccccc2NC(c2ccc(-c3ccc(-c4ccccc4)cc3)o2)N1O (stereo not given)	active: 3.57 µM	inconclusive: 1.58 µM [inhibitor, full curve, poor fit]	active: 1.58 µM	inconclusive: 10 µM [inhibitor, full curve, poor fit]				
Cc1ccc(CN(C)c2ncnc3ccc(-c4ccc5c(c4)OCO5)cc23)o1	inconclusive: 0.158 µM [inhibitor, full curve, poor fit]	active: 15.8 µM	inconclusive: 39.8 µM [inhibitor, single point]	inconclusive: 11.2 µM [inhibitor, full curve, poor fit]	inconclusive: 8.96 µM [inhibitor, partial curve]			
OCc1ccc(-c2ccc3ncnc(NCc4nccs4)c3c2)o1	inconclusive: 22.5 µM [inhibitor, partial curve]	inconclusive: 31.8 µM [inhibitor, single point]	inconclusive: 28.2 µM [inhibitor, partial curve]	inconclusive: 17.9 µM [inhibitor, partial curve]	active: 14.2 µM			
N#Cc1cnc(NS(=O)(=O)c2ccc(NC(=O)Cc3ccc(Cl)c(Cl)c3)cc2)s1	inconclusive: 25.2 µM [inhibitor, partial curve, poor fit]	active: 25.2 µM	inactive	inactive	inconclusive: 25.2 µM [inhibitor, partial curve]			
Cc1c(C(=O)OC[C@H]2CCCO2)[nH]c2c1C(=O)CC(c1ccco1)C2 (stereo not given in full)	inconclusive: 7.98 µM [inhibitor, partial curve]	inconclusive: 7.94 µM [inhibitor, partial curve, poor fit]	inconclusive: 10 µM [inhibitor, partial curve, poor fit]	active: 12.7 µM	active: 4 µM			
Cc1ccc(NS(=O)(=O)c2cc3c(cc2-c2ccco2)NC(=O)CO3)cc1C	inconclusive: 12.7 µM [inhibitor, partial curve]	inactive	inconclusive: 25.1 µM [inhibitor, partial curve]	inconclusive: 25.2 µM [inhibitor, partial curve, poor fit]				
CN1CCN(c2ccc(NC(=O)CN(C)Cc3c(O)ccc4ccccc34)cc2)CC1	inconclusive: 12.7 µM [inhibitor, partial curve]	active: 7.12 µM	inconclusive: 15.8 µM [inhibitor, partial curve]	active: 22.5 µM	active: 7.12 µM			

Reference: PubChem BioAssay (NCATS)
